Laboratory results published in patent publication US20030113828A1 (published 2003).

Target: T1, Syk protein tyrosine kinase (wild type) (UniProt P43405)
T1 construct: the printed residue numbers (K402, R195, R42, Tyr348) fit it; also called wild-type Syk; Syk kinase
Experiment: co-immunoprecipitation from fibrinogen-adherent CHO cells

B1: integrin αIIbβ3(759X) (receptor)
chain 1: not shown
chain 2: GPNICTTRGVSSCQQCLAVSPMCAWCSDEALPLGSPRCDLKENLLKDNCAPESIEFPVSEARVLEDRPLSDKGSGDSSQVTQVSPQRIALRLRPDDSKNFSIQVRQVEDYPVDIYYLMDLSYSMKDDLWSIQNLGTKLATQMRKLTSNLRIGFGAFVDKPVSPYMYISPPEALENPCYDMKTTCLPMFGYKHVLTLTDQVTRFNEEVKKQSVSRNRDAPEGGFDAIMQATVCDEKIGWRNDASHLLVFTTDAKTHIALDGRLAGIVQPNDGQCHVGSDNHYSASTTMDYPSLGLMTEKLSQKNINLIFAVTENVVNLYQNYSELIPGTTVGVLSMDSSNVLQLIVDAYGKIRSKVELEVRDLPEELSLSFNATCLNNEVIPGLKSCMGLKIGDTVSFSIEAKVRGCPQEKEKSFTIKPVGFKDSLIVQVTFDCDCACQAQAEPNSHRCNNGNGTFECGVCRCGPGWLGSQCECSEEDYRPSQQDECSPREGQPVCSQRGECLCGQCVCHSSDFGKITGKYCECDDFSCVRYKGEMCSGHGQCSCGDCLCDSDWTGYYCNCTTRTDTCMSSNGLLCSGRGKCECGSCVCIQPGSYGDTCEKCPTCPDACTFKKECVECKKFDRGALHDENTCNRYCRDEIESVKELKDTGKDAVNCTYKNEDDCVVRFQYYEDSSGKSILYVVEEPECPKGPDILVVLLSVMGAILLIGLAALLIWKLLITIHDRKEFAKFEEERARAKWDTANNPLYKEATSTFTNIT
notes: whole, on cells
B1: no binding.
